The list shows a part of the results.

From article PMC12136788 come the findings set out here.

The chains are these.
T1: UNK ZnF1-3 (human, UniProt Q9C0B0 31-174)
T1 sequence: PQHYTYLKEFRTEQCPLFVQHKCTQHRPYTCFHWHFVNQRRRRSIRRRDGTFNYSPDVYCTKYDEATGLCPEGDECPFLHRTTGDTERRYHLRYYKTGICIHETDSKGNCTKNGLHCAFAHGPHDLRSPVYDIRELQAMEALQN

B1: chr3:51263940:51263941:+_ENSMUSG00000063273_ENSMUST00000029303|mus_mus|motif|central (ssRNA)
RNA: GGGAGUUCUACAGUCCGACGAUCGUAAAAUGGAUGCUGUCGAAGUACAUCUUCUAGUUUUAAUAAGUCCACAUAUGAUCGGAGGGUGAUCUUCCUCAUACAGUAUGUAUGAAAGUCAAACUGGUCAUCGGUGAUUUCUAUAAACAACAGAGGAUUGAGCAUCA
B2: chr8:29927545:29927546:-_ENSG00000133872_ENST00000521265|hu_hu|motif|central (ssRNA)
RNA: GGGAGUUCUACAGUCCGACGAUCAGGACUCAUAGCCUUCACAGCUCACCACAGUUUUUCCAAAUUUGUAUGCAAUAUCGGAGUCCGUCUUACAUUCCCACUGUACAUCAUACCCAUCCCAGCCUUUGUUCUGACACUGUAUGACAACAGAGGAUUGAGCAUCA
B3: chr3:119450855:119450856:-_ENSMUSG00000028134_ENSMUST00000029780|mus_hu|mus_mus_mus_hu_False|8_48 (ssRNA)
RNA: GGGAGUUCUACAGUCCGACGAUCUGUGGUGCCACUAAGAGGAGUAUUUGCUGUCUGGACAGCUGUCACAGCUUGAAGAACUGCCUGCGCACGUUGGUUUAAUGUAUUAUCUGUCUUUAGUUCUUUGUGAUUGGAGUACUGGAUCAACAGAGGAUUGAGCAUCA
B4: chr10:22824096:22824097:-_ENSG00000150867_ENST00000376573|hu_mus|FALSE|FALSE (ssRNA)
RNA: GGGAGUUCUACAGUCCGACGAUCUUAUUGGGAUGACAGAGAUGGUUACAGACAAAAACCAAAGCAGUUUUGUAAACUUCUAAAAGCAUACAGAUUGGCCACAGAGGAAAUGGUUACUCAGAUCAUGUAUAUGUACCUUCAUUUCAACAGAGGAUUGAGCAUCA
B5: chr19:46159329:46159330:+_ENSMUSG00000015176_ENSMUST00000165017|mus_mus|motif|central (ssRNA)
RNA: GGGAGUUCUACAGUCCGACGAUCUACAACAGUCAAGUUGUUGCAAAAUGUCUGUCAGAAAAGCUUACUUCGAAAUUAAAACGGAAAGUACUGUAAACAUGUAGCAGUAACAGCUACCAAGAACAAAACAAAGACAGCUGCAUGCAACAGAGGAUUGAGCAUCA
B6: chr6:50805741:50805742:+_ENSG00000008196_ENST00000393655|hu_hu|FALSE|FALSE (ssRNA)
RNA: GGGAGUUCUACAGUCCGACGAUCCAGGGAGGUGAGUAACGUGACAUUUGCUGCUUUGCGCCUGCCCGCGGGUAAAUUCAAACCGAUUUUUUCUAGCCUUUCUCGCAAAGAUCUCCCCCCAUUUUUCGAUUUGGCUCUUCUGAGCAACAGAGGAUUGAGCAUCA
B7: chr6:30688276:30688277:+_ENSG00000196230_ENST00000327892|hu_mus|FALSE|FALSE (ssRNA)
RNA: GGGAGUUCUACAGUCCGACGAUCCCGAUCUGGUUGCCACACUGUCCGGCCUGGAUGUGCACGAUUUCCCUCAUGGCUACGGUUUACUGAAAUAAUUGUUUUUGAUGGUUCCAAUGUAGGUACCGAACAAGAAAGAAAAUUAAGCAACAGAGGAUUGAGCAUCA
B8: 149274316_149275877_704_3pUTR_ENSMUSG00000037887_ENSMUST00000039926|mouse|control|control (ssRNA)
RNA: GGGAGUUCUACAGUCCGACGAUCGGAUGGACAGGAAGCUGUCUGCUGCCAGCACGCUGGCAUCUCGUGUGCUCUGGUCAUACACCACUACAUCCUGUGGUUCUGUGGCAUCCACCUGGCUCCGUGUAGCAGGCUGGAUAAGCUCAACAGAGGAUUGAGCAUCA
B9: chr1:130260868:130260869:-_ENSMUSG00000026356_ENSMUST00000027602|mus_mus|motif|central (ssRNA)
RNA: GGGAGUUCUACAGUCCGACGAUCCGUGAGUCGUUUGGGGUCACGAGGGAACAUUGAGGUCUGGCGUACGUUAUGCAAUCCGGAAAACAGCAUCGUCACCCUUUCCAGCCCAAUGCCACCACCAGCAUGAGGAGGAGCUCCAAACAACAGAGGAUUGAGCAUCA
B10: chr11:118960446:118960447:+_ENSG00000256269_ENST00000278715|hu_hu|FALSE|FALSE (ssRNA)
RNA: GGGAGUUCUACAGUCCGACGAUCGUGAAAGACAACAGCAUCAUGAGGGUUUUCCCGCUUGCAGAUGGCUCCGAUGGUGAAGCCAGGAGGAAGCACAGUGGGCAGGUCCUUCAAGGAGUGAACAACCAGGUCCACUUCAUUCUUCAACAGAGGAUUGAGCAUCA
B11: chr1:193046084:193046085:+_ENSG00000116747_ENST00000432079|hu_hu|motif|central (ssRNA)
RNA: GGGAGUUCUACAGUCCGACGAUCUUCAUCAGGGCGCCACUUCAGUUUCCCUCUGAGACCAUGACCUGUCUUGUAAGUUUCGGAUGCGAUCAAAAUAUGAAAUGGAUGUAUACGAGCCUUUUUUAAUAGUUUUUCAUUACACAGCAACAGAGGAUUGAGCAUCA
B12: chr22:38894135:38894136:-_ENSG00000100201_ENST00000396821|hu_mus|motif|central (ssRNA)
RNA: GGGAGUUCUACAGUCCGACGAUCAUAAUCGUCAGCCACCUGCUGCACCUGCUGCGCAAGCUCUCUGGUAGGAGCCAGCACGGGACAAAUUGGACCAUCUCCUCUUUCCAAGUAUGGCUGGUGGUUUAUAUGAACAAUCGCAGGCAACAGAGGAUUGAGCAUCA
B13: chrX:7458662:7458663:+_ENSMUSG00000031155_ENSMUST00000033495|mus_hu|FALSE|FALSE (ssRNA)
RNA: GGGAGUUCUACAGUCCGACGAUCAAGCAGGGCACCAGAACCAAAAUCAAUGAGUUUGGCACAGCCACGGCGUAGGUCUAUCAGGAUGUUCUCAUCCUUGAUGUCACGAUGGACAACUCCACGGGAAUGGCAGUGCUGGAUGGCCAACAGAGGAUUGAGCAUCA
B14: chr8:74858975:74858976:-_ENSG00000154582_ENST00000284811|hu_mus|hu_hu_hu_mus_True|68_108 (ssRNA)
RNA: GGGAGUUCUACAGUCCGACGAUCGACCUUGUACGUAAAAUACAUGCACACUUUUGAUAGCACAUGUGAAGGUAUCUCUCUAAAAUUGACCUCGUUGGUUUCAUUCUCAGCAAACUGACCUGGACCACUCAACAUAGCCUUUAUCAACAGAGGAUUGAGCAUCA

The experiment addresses T1, UNK ZnF1-3. The experiment can be described thus: nsRBNS (natural sequence RNA bind-n-seq); RBNS binding buffer (assumed for nsRBNS): 25 mM Tris pH 7.5, 150 mM KCl, 3 mM MgCl2, 0.01% Triton X-100, 500 ug/ml BSA, 20 U/ml SUPERase-In, 4 C; UNK is unkempt and MSI1 is Musashi-1; names of the RNAs are library labels; protein concentration not given here; high values mean tight binding.
Regarding B1, the binding signal was 0.993 enrichment R.

As to B2, the binding signal stood at 0.751 enrichment R. Turning to B3, the binding signal turned out to be 0.845 enrichment R. In turn, B4 yielded a binding signal of 1.58 enrichment R. With B5 the figure was 1.44 enrichment R; with B6, 1.13 enrichment R; with B7, 1.42 enrichment R. On to B8, for which the binding signal came to 0.79 enrichment R.

With B9, the binding signal was 1.2 enrichment R. B10: the binding signal came out at 0.794 enrichment R. For B11, the binding signal turned out to be 1.34 enrichment R. Then B12, with 0.905 enrichment R. Then B13, with 1.17 enrichment R; and B14, with 0.762 enrichment R.
